# Measured values reported in publication PMC4336329 (PLoS ONE, 2015).
# Screen size: about 310,000 compounds; about 14,000 (4.5%) showed an effect of 50% or more. Effects have a minus sign here. The list shows a part of the results.
# Molecular target: human ether-à-go-go-related gene (hERG) potassium channel (human, UniProt Q12809)
# Assay: primary screen, population patch clamp on CHO cells stably expressing hERG
# 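Further: peak tail current of the secondary pulse compared with the same well before compound.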
# Chain of human ether-à-go-go-related gene (hERG) potassium channel (Q12809 whole entry, looked up): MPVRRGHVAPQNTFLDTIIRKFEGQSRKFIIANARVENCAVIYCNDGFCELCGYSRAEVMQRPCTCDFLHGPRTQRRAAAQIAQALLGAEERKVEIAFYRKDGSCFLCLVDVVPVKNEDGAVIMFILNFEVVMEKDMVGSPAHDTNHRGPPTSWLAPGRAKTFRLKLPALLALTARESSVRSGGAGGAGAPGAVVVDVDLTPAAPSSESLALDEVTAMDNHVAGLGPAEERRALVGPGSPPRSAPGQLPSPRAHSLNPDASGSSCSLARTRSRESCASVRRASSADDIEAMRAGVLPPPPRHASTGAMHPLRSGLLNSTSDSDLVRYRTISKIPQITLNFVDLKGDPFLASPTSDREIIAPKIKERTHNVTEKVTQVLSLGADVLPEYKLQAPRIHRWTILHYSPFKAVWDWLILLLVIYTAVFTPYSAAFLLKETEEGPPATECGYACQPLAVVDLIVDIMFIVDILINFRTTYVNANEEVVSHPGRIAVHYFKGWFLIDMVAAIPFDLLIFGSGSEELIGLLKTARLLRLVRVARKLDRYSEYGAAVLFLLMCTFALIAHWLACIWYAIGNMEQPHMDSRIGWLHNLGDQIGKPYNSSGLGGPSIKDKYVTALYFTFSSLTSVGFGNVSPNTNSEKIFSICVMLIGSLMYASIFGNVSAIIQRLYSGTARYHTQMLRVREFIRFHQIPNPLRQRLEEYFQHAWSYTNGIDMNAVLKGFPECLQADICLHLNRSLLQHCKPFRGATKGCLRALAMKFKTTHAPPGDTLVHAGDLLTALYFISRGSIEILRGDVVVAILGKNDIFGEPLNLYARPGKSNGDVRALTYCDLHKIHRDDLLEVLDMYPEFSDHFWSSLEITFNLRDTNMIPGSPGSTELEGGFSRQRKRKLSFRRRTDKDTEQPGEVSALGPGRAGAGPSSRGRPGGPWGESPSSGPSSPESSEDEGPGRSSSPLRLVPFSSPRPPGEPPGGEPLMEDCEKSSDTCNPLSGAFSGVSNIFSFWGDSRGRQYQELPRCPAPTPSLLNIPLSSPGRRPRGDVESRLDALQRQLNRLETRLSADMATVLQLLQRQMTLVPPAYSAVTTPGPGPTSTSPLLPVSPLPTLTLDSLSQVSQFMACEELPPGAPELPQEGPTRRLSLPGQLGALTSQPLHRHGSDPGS
row,Compound,"hERG current change (%, negative = inhibition) at 10uM"
1,OC[C@@H](O)[C@@H](O)CO,5.41%
2,O=C1NC(c2cccnc2)C(C(=O)c2cccs2)C(O)(C(F)(F)F)N1 (stereo not drawn),-7.96%
3,O=C(CSc1nc2ccccc2o1)N1CCOCC1,14.6%
4,Cc1c(Cl)cccc1NC(=O)Cn1c(-c2ccc(F)cc2)noc1=O,35.4%
5,CC(OC(=O)c1ccc(Cl)cc1)C(=O)NCC1CCCCC1 (stereo not drawn),-3.72%
6,CCN1C(=O)C(CC(=O)Nc2ccccc2)N(Cc2ccccn2)C1=S (stereo not drawn),10.7%
7,O=C(c1ccc2c3c(cccc13)C(=O)N(O)C2=O)N1CCCCC1,12.4%
8,COc1ccc(CC(=O)NCc2ccccc2)cc1OC,11.7%
9,COc1cc2c(cc1NC(=O)c1ccc(C(C)(C)C)cc1)CCCC2,-4.03%
10,O=C(Nc1ccccc1Cc1ccccc1)c1ccc2c(c1)SC1=NS(=O)(=O)CCN12,-5.78%
11,Cc1cccc(C)c1NC(=O)CC1SC2=NCCN2C1=O (stereo not drawn),8.88%
12,Cl.O=C(O)c1ccc(CNCc2c(Cl)cccc2Cl)cc1,-4.27%
13,Cc1ccc(S(=O)(=O)N2CCCN(C(=O)c3cc4ccccc4[nH]3)CC2)cc1,-36.6%
14,O=C(CCC(=O)N1CCOc2ccccc21)NCc1ccccn1,12.3%
15,CC(C)(C)NC(=O)CSc1nc(N)c(NC(=O)c2ccccc2F)c(=O)[nH]1,25.4%
16,CC1CCCCC1NC(=O)CSc1nc2ccccc2[nH]1 (stereo not drawn),6.61%
17,Cc1nnc(SCC(=O)Nc2ncc(Cc3ccc(F)cc3)s2)n1N,8.87%
18,Nc1cc(=O)[nH]c(SCC(=O)Nc2ccc(F)c(Cl)c2)n1,7.39%
19,COc1cccc(N2CCN(C(=O)CCSCc3ccccc3F)CC2)c1,-57.9%
20,COc1ccc(NC(=O)CCN2C(=O)c3ccccc3C2=O)cc1,12%
21,Cc1ccc(C)c(S(=O)(=O)N/N=C/c2ccc(N(C)C)cc2)c1,16.1%
22,Cc1nn(C)c(C)c1CNC(=O)c1nn2c(c1Cl)NC(c1cccs1)CC2C(F)(F)F (stereo not drawn),-18%
23,COc1cc2c(cc1NC(=O)C(c1ccccc1)c1ccccc1)CCCC2,9.32%

row,Compound,"hERG current change (%, negative = inhibition) at 10uM"
1,CC(=O)NS(=O)(=O)c1cccnc1Nc1ccc(Cl)c(Cl)c1,16.1%
2,O=C(N/N=C/C=C/c1ccccc1[N+](=O)[O-])c1cccnc1,0.26%
3,COc1ccc(CCNC(=O)COC(=O)/C=C/c2cccs2)cc1OC,6.97%
4,CCOC(=O)Cn1c2c(c(=N)c3ccccc31)CCC2.Cl,4.06%
5,O=S1(=O)N=C2CCCCCN2C(c2ccncc2)N1 (stereo not drawn),-1.1%
6,Cc1nc2nc[nH]n2c(=O)c1NC(=O)c1c(-c2ccccc2Cl)noc1C,4.9%
7,Cc1ccc(NC(=O)CS(=O)CC(=O)Nc2ccc(N3CCOCC3)cc2)cc1Cl (stereo not drawn),1.1%
8,CC1Cc2ccccc2N1C(=O)CN1C(=O)NC2(CCCCC2)C1=O (stereo not drawn),14.8%
9,Cc1ccc(C2=C(CC(=O)O)C(=O)CC2)cc1,12.1%
10,C/C(=N/Nc1ccccc1[N+](=O)[O-])c1ccc([N+](=O)[O-])cc1,5.07%
11,Cc1ccc(C(=O)Nc2nc3ccc(S(C)(=O)=O)cc3s2)cc1C,12%
12,Cc1cc(S(=O)(=O)N2CCOCC2)ccc1OCC(=O)Nc1ccc(F)cc1F,12.3%
13,COc1cc(CNC(C)C)c(Br)cc1OC1CCCC1.Cl,-0.224%
14,CCOc1cc(/C=N/NC(=O)C(=O)NCCCOC(C)C)cc(Br)c1O,7.39%
15,COc1ccc([N+](=O)[O-])cc1NC(=O)C(C)OC(=O)Cn1[nH]c(=O)c2ccccc2c1=O (stereo not drawn),-7.54%
16,COc1cccc(N=C2SC(C(=O)Nc3ccccc3F)CC(=O)N2C)c1 (stereo not drawn),-2.52%
17,Cc1c(Cl)cn2c(=O)cc(CN3CCN(c4ccc(F)cc4)CC3)nc2c1Cl,-37.1%
18,O=C(Nc1ccc(S(=O)(=O)N2CCOCC2)cc1)c1cccc(Br)c1,-7.61%
19,C=CCN(c1ccc(Br)cc1C(=O)OC)S(C)(=O)=O,0.801%
20,Cc1[nH]c(=O)c(C#N)c(C)c1[N+](=O)[O-],-0.00732%
21,Cc1ccc(C)c(OCCCNCc2ccccc2)c1.O=C(O)C(=O)O,-25.5%
22,COC(=O)N/N=C/c1ccccc1OCc1ccccc1,13.4%
